According to PubChem BioAssay AID1645882 (National Center for Advancing Translational Sciences (NCATS), 2021):
About 120 (0.75%) of roughly 16,000 compounds were called active. About 4% were inconclusive and are not listed. Calls follow the shape of the dose curve; as a rule, active = well fitted inhibition curve with a large enough effect; inconclusive = small, poorly fitted or top-dose-only effect; inactive = no such curve, though single readings can be large or run the other way. The list shows a part of the results.

These molecules were tested against Rap guanine nucleotide exchange factor 3 (Homo sapiens) (UniProt O95398) (assay: Validation qHTS for antagonist of cAMP-regulated guanine nucleotide exchange factor 3 (EPAC1)). Conditions: EPAC1 Rap1B-BODIPY-GDP exchange, fluorescence; series mostly up to 150 µM; activity change, negative = inhibition: at the top concentration.
UniProt O95398, sequence (O95398 whole entry, looked up): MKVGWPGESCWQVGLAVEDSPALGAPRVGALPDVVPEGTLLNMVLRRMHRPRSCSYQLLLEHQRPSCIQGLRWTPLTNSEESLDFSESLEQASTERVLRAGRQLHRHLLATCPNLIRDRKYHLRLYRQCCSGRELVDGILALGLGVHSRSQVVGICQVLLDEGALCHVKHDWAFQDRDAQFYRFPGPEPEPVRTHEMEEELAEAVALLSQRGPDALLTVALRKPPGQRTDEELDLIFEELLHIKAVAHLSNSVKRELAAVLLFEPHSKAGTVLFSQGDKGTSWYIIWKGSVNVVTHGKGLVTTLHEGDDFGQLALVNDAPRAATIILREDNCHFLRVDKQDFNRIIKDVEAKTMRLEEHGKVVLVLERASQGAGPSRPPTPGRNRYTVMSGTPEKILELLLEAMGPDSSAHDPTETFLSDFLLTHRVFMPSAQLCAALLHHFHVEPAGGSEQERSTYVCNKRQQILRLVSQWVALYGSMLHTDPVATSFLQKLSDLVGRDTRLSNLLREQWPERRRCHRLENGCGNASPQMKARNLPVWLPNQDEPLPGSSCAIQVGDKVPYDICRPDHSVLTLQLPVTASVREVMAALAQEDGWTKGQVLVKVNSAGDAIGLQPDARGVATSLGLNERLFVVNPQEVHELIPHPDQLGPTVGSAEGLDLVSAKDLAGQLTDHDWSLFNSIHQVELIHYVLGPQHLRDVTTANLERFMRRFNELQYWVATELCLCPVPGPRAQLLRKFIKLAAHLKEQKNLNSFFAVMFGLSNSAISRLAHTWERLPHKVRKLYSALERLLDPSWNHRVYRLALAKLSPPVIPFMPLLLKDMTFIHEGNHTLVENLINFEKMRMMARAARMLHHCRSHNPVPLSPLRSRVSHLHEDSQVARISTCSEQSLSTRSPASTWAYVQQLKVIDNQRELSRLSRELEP
Outline: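 Nucleotide exchange followed as fluorescence loss when BODIPY-GDP leaves Rap1B (480 nm excitation, 540 nm emission), read at 5 min intervals over 30 min. Reaction: 100 nM EPAC1, 250 nM RAP1B-BODIPY-GDP, 50 uM GDP; ATA and DMSO define normalization.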
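Also: plate controls were DMSO for no effect and ATA control for full effect; nearly all actives have a fitted effect of over 75% in size.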

Activity change, negative = inhibition, inactive:
COc1cccc(-c2nc(NCCN3CCOCC3)c3ccccc3n2)c1 4.52%
COC(=O)C[C@H]1c2ccccc2S(=O)(=O)N1C(C)C 6.97%
Oc1cc2c(c(Cl)c1O)CCNCC2c1ccccc1 (centres undefined)
CC(=O)OC1CC(OC(C)=O)[C@]2(C)C(CC(=O)[C@]3(C)C2CC[C@@]2(C)C(C(=O)O)OC(=O)C4OC423)C1(C)C (some centres undefined) -2.45%
Cc1c(C(=O)N(C)C2CCOC2)sc2ncnc(NCC3(c4ccccc4)CCOCC3)c12 (centres undefined) 17.7%
COCC(=O)O[C@]1(CCN(C)CCCc2nc3ccccc3[nH]2)CCc2cc(F)ccc2[C@@H]1C(C)C
O=C(O)CCCCC1CCSS1 (centres undefined)
O=C(N[C@@H]1CCC(=O)N(CC[C@H](Sc2ccccc2)c2ccccc2)CC1)OCc1ccccc1 4.42%
CCN(CC)Cc1cc(Nc2ccnc3cc(Cl)ccc23)ccc1O
CC(=O)OC1CC[C@@]2(C)C3=CC(=O)[C@]4(C)C(CC5OC6(OCC(C)CC6Br)C(C)C54)C3CC[C@H]2C1 (some centres undefined) -4.28%
OC(c1ccc2c(c1)CN(Cc1ccc3nsnc3c1)CCO2)C1CCCCC1 (centres undefined) 12.3%
COc1ccc2c(c1)CCc1cnc(-n3ncc(C(=O)NCc4cccnc4)c3C3CC3)nc1-2 29%
CC[C@@H]([C@H](C)O)n1ncn(-c2ccc(N3CCN(c4ccc(OCC5CO[C@@](Cn6cncn6)(c6ccc(F)cc6F)C5)cc4)CC3)cc2)c1=O (some centres undefined) 19.4%
CN1CCC(=O)N([C@H](CN=[N+]=[N-])Cc2ccccc2)CC1 -4.27%
C#C[C@]1(OC(C)=O)CC[C@H]2[C@@H]3CCC4=C/C(=N/O)CC[C@@H]4[C@H]3CC[C@@]21CC -11.6%
COc1ccc2[nH]c(C(=O)c3ccccc3)cc2c1 0.833%
c1ccc(CNCCNCc2ccccc2)cc1 5.83%
O=C(/C=C/C=C/c1ccc2c(c1)OCO2)N1CCCCC1 2.95%
CC(C)CCC[C@@H](C)[C@H]1CC(=O)C2=C3CC[C@H]4C[C@@H](O)CC[C@]4(C)[C@H]3CC[C@@]21C -4.86%
O=c1c2ccccc2nc2n1CCc1c-2[nH]c2ccccc12 -4.38% [at 75.8 µM]
CCC(=O)OCC(=O)[C@@]1(OC(=O)CC)[C@@H](C)C[C@H]2[C@@H]3CCC4=CC(=O)C=C[C@]4(C)[C@@]3(Cl)[C@@H](O)C[C@@]21C -3.39%
O=C(O)CCCCCCCCc1cn(CCc2c[nH]c3ccccc23)nn1 10.2%
COc1ccc(S[C@@H]2C[C@@H](C(=O)Nc3ccc4nccnc4c3)N(C3Cc4ccccc4C3)C2)cc1 -6.71%
COc1ccccc1C(=O)N[C@@H]1c2ccccc2C2(CCN(Cc3ccc(C)o3)CC2)[C@H]1O 4.24%
CC(=O)N1CCC2(CCCN(c3cccc(-c4ccccc4)c3)C2)CC1 -26%
COc1nc(N)nc2c1ncn2[C@@H]1O[C@H](CO)[C@@H](O)[C@@H]1O 28.1%
COC(=O)N1CCC2(CC1)CCN(c1ncccn1)CC2 13.7%
CN(C)c1ccc(-c2cncnc2-n2ccnc2)cc1 2.96%
Cc1cc(C(=O)Nc2ccccc2-c2nc(CNC(=O)C3(C)CCCCC3)c(C)o2)c(C)o1 14.6%
O=C(O)[C@H]1CN[C@H](C(=O)O)C1 -3.92%
CN(C)c1ccc(/C=C/c2cc3ccccc3c[n+]2C)cc1 -2.82%
CCC1C(=O)NCCN1Cc1ccc2c(c1)CN(Cc1ccc(OC)cc1OC)CCO2 (centres undefined) -10.5%
O=C(CCCN1CCC(O)(c2cccc(C(F)(F)F)c2)CC1)c1ccc(F)cc1
CN(C)c1ccc(/C=C/c2cc3ccccc3cn2)cc1 6.84%
CN(C)CCCn1cc(C2=C(c3c[nH]c4ccccc34)C(=O)NC2=O)c2ccccc21 -12.1%
COc1ccccc1N1CCN(CCCNc2cc(=O)n(C)c(=O)n2C)CC1
COc1cc(-c2c(-c3ccc4c(c3)OCO4)noc2-c2ccsc2)cc(OC)c1OC 5.12%
CCCCCCCCCCOCCC(=O)O 18.4% [at 15.3 µM]
COc1ccc(CNc2cc(-c3ccccc3OC)ncn2)c(OC)c1 -2.68%
CC1(C)OC2CC3C4CC(F)C5=CC(=O)C=C[C@@]5(C)[C@@]4(F)C(O)C[C@@]3(C)[C@]2(C(=O)CO)O1 (some centres undefined) 14.4%
O=C1CC[C@@H](C(=O)NCC2Cc3cc(Cl)cc(-c4ccc5[nH]ccc5c4)c3O2)N1 (some centres undefined) 8.34%
COc1ccccc1CNc1ccnc(-c2ccc(C(=O)N(C)C)cc2)n1 4.2%
COc1cc(-c2noc(C)c2/C=C/c2ccc(OC(C)=O)cc2)cc(OC)c1OC -3.53%
Nc1[nH]c(=S)[nH]c(=O)c1N 20.2%
CC(CCc1ccc2c(c1)OCO2)NN (centres undefined) 23.3%
COc1ccc(C2NC(=S)N3C(c4ccc(OC)c(OC)c4)NC(=S)N23)cc1OC (centres undefined) 35%
c1csc(CNc2ncnc3ccc(-c4ccoc4)cc23)c1 11%
CC(O)(COc1ccccc1)c1ccc2c(c1)CN(Cc1ccccn1)CCO2 (centres undefined) 1.5%
O=c1c(-c2ccccc2)nc2cnc(Oc3ccccc3)nc2n1Cc1cccs1 19.7%
COC(=O)CC1C(C)(C)C(O)C2CC3=C4CC(O)OC(c5ccoc5)[C@]4(C)CCC3[C@@]1(C)C2=O (some centres undefined) -11.8%
Cc1ccc2nccnc2c1 24%
COc1ccccc1N1CCN(CCn2c(=O)[nH]c3c([nH]c4ccccc43)c2=O)CC1
c1ccc(-n2cnnn2)cc1 24%
Cn1c(=O)c2c(ncn2CCO)n(C)c1=O
Cc1cccc2cc(CN(CC3CCCO3)C(=O)c3ccccc3F)c(N(C)C)nc12 (centres undefined) 6.47%
COc1cc(=O)n2c(c1C(=O)N(C)Cc1nccs1)CCN(Cc1c(F)ccc(F)c1F)CC2 8.22%
O=C(O[C@H]1[C@H](Cc2ccccc2)NS(=O)(=O)[C@H]2C[C@@H]3C=C[C@]12O3)c1ccc([N+](=O)[O-])cc1 4.62%
CO/N=C(\C(=O)N[C@@H]1C(=O)N2C(C(=O)O)=C(CSc3nc(=O)c(O)nn3C)CSC12)c1csc(N)n1 (some centres undefined) 6.28% [at 75.8 µM]
C(=C\c1ccnc2ccccc12)/c1ccc2ccccc2n1 0.616%
Cn1c(-c2ccncc2)nc2cc(C(=O)N3CCCC3c3nccs3)cc(NC(=O)C3CCC3)c21 (centres undefined) 2.03%
COC(C)(C)CCCC(C)C/C=C/C(C)=C/C(=O)O (centres undefined) 40.7%
COc1cccc(CCNc2ncnc3sc(C(=O)N4CCOCC4)c(C)c23)c1 1.02%
CC(C)NC(=O)N1CC2(CCN(C(=O)c3cc(C(F)(F)F)cc(C(F)(F)F)c3)CC2)C1 9.88%
CCCCCCCCCCCCCCSCC(=O)O -12.2% [at 75.8 µM]
COc1ncc2nc(-c3cccs3)c(=O)n(C)c2n1 6.94%
CCCn1cnc2c1c(=O)n(CCCCC(C)=O)c(=O)n2C
O=C(O)CN(CCN(CC(=O)O)CC(=O)O)CCN(CC(=O)O)CC(=O)O
CC(C)(CO)Cc1cc(C(C)(C)C)c(O)c(C(C)(C)C)c1 3.54% [at 75.8 µM]
O=C1CCC[C@@H]2Cc3nc4cc5c(cc4cc3[C@@H]3CCN1[C@H]23)OCO5 4.52%
C#CCN(C)CCCOc1ccc(Cl)cc1Cl
CCc1cc2c(c(CC)n1)CCC(=O)N2Cc1ccc(-c2ccccc2-c2nn[nH]n2)cc1 3.87%
COc1ccccc1-c1cc(NCc2cccc(C)c2)ncn1 -9.2%
COC(=O)C1=C(C(=O)OC)[C@]2([C@@H]3C/C=C\CN[C@@H](Cc4ccccc4)C(=O)N3Cc3ccccc3)C=C[C@H]1O2 -23.7%
CCCCCCCCCCCCCCCCCCCCCC(=O)Nc1ccn([C@@H]2O[C@H](CO)[C@@H](O)[C@@H]2O)c(=O)n1 19.5%
CC(C)NCC(O)c1cc(O)cc(O)c1 (centres undefined)
COc1ccc(NC(=O)N2CCC3(CC2)CCN(C(=O)c2cccn2C)CC3)cc1 22.1%
O=C(NCC1(N2CCOCC2)CCCC1)c1cnn(-c2nccc(-c3ccco3)n2)c1C1CC1 19.5%
CC(=O)/C(C)=N/O -6.88% [at 75.8 µM]
O=C1CC[C@@H](C(=O)N[C@H]2C[C@@H]2c2ccccc2)N1 1.53%
N#C[C@H]1C[C@H]2C[C@@H]2N1C(=O)[C@@H](N)C12CC3CC(CC(O)(C3)C1)C2 22.1%
O=C1OC(OC(=O)c2cccnc2Nc2cccc(C(F)(F)F)c2)c2ccccc21 (centres undefined) 13.1%
O=C1[C@H](Cc2ccccc2)NCCCC[C@@H](c2ccco2)N1Cc1ccccc1 -9.86%
COC(=O)C1=C(C)NC(C)=C(C(=O)OC(C)C)C1c1cccc2nonc12 (centres undefined)
CC1(C)CC[C@]2(C(=O)O)CC[C@]3(C)C(=CCC4[C@@]5(C)CC[C@H](O)C(C)(C)[C@@H]5CC[C@]43C)C2C1 (some centres undefined) 19.7%
COCCn1c(=O)c(C)nc2cnc(N(C)C)nc21 7.17%
CO[C@H]1[C@H](NC(=O)c2ccsc2)c2ccccc2C12CCN(Cc1cccn1-c1ccccn1)CC2 9.35%
COc1cc(OC)c(C(=O)CCCCN2CCC3(CC2)NC(=O)NC3=O)cc1NS(=O)(=O)c1ccc(C(F)(F)F)cc1
CC1(C)SC2C(NC(=O)Cc3ccccc3)C(=O)N2C1C(=O)O (centres undefined) -9.06%
c1ccc2nc3ccccc3cc2c1 10.5%
O=C1CCC[C@@H]2C[C@@]3(C[C@@H]4CCN1[C@H]24)Nc1cc(Cl)ccc1NC3=NC1CCCCC1 -11.3%
Cc1cc2ccccc2cn1 17.8%
CC[C@@]12CCCN3CCc4c(n(c5ccccc45)[C@](O)(C(=O)OC)C1)[C@H]32 -6.08%
C/C=C/c1ccc2oc(-c3ccc(O)cc3)c(C)c2c1 -29.4%
O=C1CC[C@H](C(=O)N2CCCCC2)N1 40%
OC(c1ccc2c(c1)CN(Cc1cccn1-c1ncccn1)CCO2)C1CCCCC1 (centres undefined) 7.08%
O=C(O)/C=C/c1cnc[nH]1 7.53% [at 75.8 µM]
N[C@@H](CSCCCO)C(=O)O 8.65%
COc1ccc(CN2CCCC(n3cc(C(=O)NC4CCCC4)nn3)C2)c(O)c1 (centres undefined) 8.82%
CC(C)CN1CCC(=O)N(CCOc2ccccc2)CC1 5.12%
